Test results: article PMC4336329 (PLoS ONE, 2015)
About 2,200 (0.71%) of roughly 310,000 compounds showed an effect of 50% or more. Effects have a minus sign here. Some of the results follow.

Target: human ether-à-go-go-related gene (hERG) potassium channel (human, UniProt Q12809)
Experiment: primary screen, population patch clamp on CHO cells stably expressing hERG

Chain of human ether-à-go-go-related gene (hERG) potassium channel (Q12809 whole entry, looked up): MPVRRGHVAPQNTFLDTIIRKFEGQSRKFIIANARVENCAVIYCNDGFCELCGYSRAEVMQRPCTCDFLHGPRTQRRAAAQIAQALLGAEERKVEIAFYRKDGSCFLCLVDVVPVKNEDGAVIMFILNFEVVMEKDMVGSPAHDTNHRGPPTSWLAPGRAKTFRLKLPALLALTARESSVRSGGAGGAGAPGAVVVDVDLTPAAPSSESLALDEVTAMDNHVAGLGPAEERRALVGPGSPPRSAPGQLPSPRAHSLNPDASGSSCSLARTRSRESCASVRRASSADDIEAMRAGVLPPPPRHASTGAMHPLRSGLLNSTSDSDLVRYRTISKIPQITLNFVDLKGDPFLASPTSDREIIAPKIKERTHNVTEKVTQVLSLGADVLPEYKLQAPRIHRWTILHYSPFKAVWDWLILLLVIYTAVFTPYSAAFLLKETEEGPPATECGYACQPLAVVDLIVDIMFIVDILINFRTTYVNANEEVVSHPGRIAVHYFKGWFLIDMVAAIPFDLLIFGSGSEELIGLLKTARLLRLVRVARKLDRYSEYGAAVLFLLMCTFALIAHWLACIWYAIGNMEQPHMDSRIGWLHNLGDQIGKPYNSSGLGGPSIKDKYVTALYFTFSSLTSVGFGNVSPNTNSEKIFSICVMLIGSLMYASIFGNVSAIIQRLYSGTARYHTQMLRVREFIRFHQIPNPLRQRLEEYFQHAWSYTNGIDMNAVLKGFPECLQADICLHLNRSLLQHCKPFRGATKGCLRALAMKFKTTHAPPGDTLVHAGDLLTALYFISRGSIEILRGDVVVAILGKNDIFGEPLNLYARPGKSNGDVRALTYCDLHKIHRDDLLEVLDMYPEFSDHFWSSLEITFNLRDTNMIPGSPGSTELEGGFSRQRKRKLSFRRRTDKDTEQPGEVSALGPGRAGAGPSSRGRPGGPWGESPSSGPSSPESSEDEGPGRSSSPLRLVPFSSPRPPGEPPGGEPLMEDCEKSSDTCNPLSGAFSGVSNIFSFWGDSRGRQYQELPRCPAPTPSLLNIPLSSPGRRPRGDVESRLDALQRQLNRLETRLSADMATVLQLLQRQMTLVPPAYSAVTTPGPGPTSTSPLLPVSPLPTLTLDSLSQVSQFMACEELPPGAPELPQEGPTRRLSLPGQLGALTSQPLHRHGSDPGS

**Q.** For CCOC(=O)c1c(C)[nH]c(C)c1C(=O)COC(=O)c1ccc(OC)c(OC)c1, which “hERG current change (%, negative = inhibition) at 1uM” value is on record?
**A.** Its value is 7.01%.

**Q.** With CC1CC1C(=O)OCC(=O)Nc1ccc2[nH]c(=O)[nH]c2c1 (centres unmarked) as the compound, how does the “hERG current change (%, negative = inhibition) at 1uM” value read?
**A.** Its value is 9.05%.

**Q.** How did the “hERG current change (%, negative = inhibition) at 1uM” value turn out when C=CCC1(CC=C)CCCN1C(=O)C1CCC(=O)N(CCc2ccccc2)C1 (centres unmarked) was run?
**A.** Its value is 2.74%.

**Q.** For COc1ccccc1/C=N/NS(=O)(=O)c1ccccc1, which “hERG current change (%, negative = inhibition) at 1uM” value is on record?
**A.** Its value is 12.7%.

**Q.** COc1ccc(C(CC(=O)Nc2ccc(C)cc2)NC(=O)C(F)(F)F)cc1 (centres unmarked) was tested. Which “hERG current change (%, negative = inhibition) at 1uM” value did it give?
**A.** Its value is -0.507%.

**Q.** How did the “hERG current change (%, negative = inhibition) at 1uM” value turn out when CCOC(=O)/C(=C/c1ccc(OC(=O)c2ccccc2)cc1)C(C)=O was run?
**A.** Its value is 7.36%.

**Q.** Which “hERG current change (%, negative = inhibition) at 1uM” value does the source give for COc1cccc(/C=N/N=C(\N)c2nonc2N)c1O here?
**A.** The value was 13.8%.

**Q.** How did the “hERG current change (%, negative = inhibition) at 1uM” value turn out when Cc1cc(N)nc(C)c1C#N was run?
**A.** Its value is 4.27%.

**Q.** For O=C(NCCc1ccccc1)c1cc2ccccc2oc1=O, which “hERG current change (%, negative = inhibition) at 1uM” value is on record?
**A.** Its value is 5.96%.

**Q.** For NC(=O)C1CCN(C2=C(NS(=O)(=O)c3ccc(Br)cc3)C(=O)c3ccccc3C2=O)CC1, which “hERG current change (%, negative = inhibition) at 1uM” value is on record?
**A.** Its value is -22.5%.

**Q.** With O=C(Nc1ccccc1)Nc1nnc(SCc2ccc(Cl)cc2)s1 as the compound, how does the “hERG current change (%, negative = inhibition) at 1uM” value read?
**A.** Its value is 11.9%.

**Q.** Which “hERG current change (%, negative = inhibition) at 1uM” value does the source give for O=C(COC(=O)c1ccncc1)c1ccccc1 here?
**A.** The value was 11.1%.

**Q.** With Cc1snc(S(=O)(=O)/C(C#N)=N/Nc2ccc(C(F)(F)F)cc2)c1C#N as the compound, how does the “hERG current change (%, negative = inhibition) at 1uM” value read?
**A.** The value was 22.5%.

**Q.** With Cc1cc(C)cc(C(=O)Nc2c3c(nn2C(C)(C)C)CS(=O)(=O)C3)c1 as the compound, how does the “hERG current change (%, negative = inhibition) at 1uM” value read?
**A.** Its value is 7.45%.

**Q.** CCCOc1ccc(/C=N/n2nnnc2N)cc1OC was tested. Which “hERG current change (%, negative = inhibition) at 1uM” value did it give?
**A.** The value was 10.6%.

**Q.** How did the “hERG current change (%, negative = inhibition) at 1uM” value turn out when COc1ccccc1NC(=O)c1ccc[n+]([O-])c1 was run?
**A.** The value was 15.7%.

**Q.** COCCCNC(=S)NC(=O)c1ccc(C)cc1 was tested. Which “hERG current change (%, negative = inhibition) at 1uM” value did it give?
**A.** Its value is 12%.

**Q.** How did the “hERG current change (%, negative = inhibition) at 1uM” value turn out when Cc1ccc(-c2csc3ncnc(N4CCN(C)CC4)c23)cc1C was run?
**A.** The value was 10.8%.

**Q.** With CC(O)CO (centres unmarked) as the compound, how does the “hERG current change (%, negative = inhibition) at 1uM” value read?
**A.** Its value is 15.7%.

**Q.** For Cc1ccc(C)c(Oc2cc(NC(=O)CCCn3nc(C)c([N+](=O)[O-])c3C)cc([N+](=O)[O-])c2)c1, which “hERG current change (%, negative = inhibition) at 1uM” value is on record?
**A.** The value was 9.35%.

**Q.** How did the “hERG current change (%, negative = inhibition) at 1uM” value turn out when CCOC(=O)c1c(C)cc(C)[nH]c1=O was run?
**A.** Its value is 18.3%.

**Q.** How did the “hERG current change (%, negative = inhibition) at 1uM” value turn out when COC(=O)C1=C(c2ccccc2OCc2ccccc2)C[C@@H]2CC[C@H]1N2C(=O)NCc1ccc(C(F)(F)F)cc1 was run?
**A.** Its value is 12.8%.

**Q.** COCCCN1CCN(c2nnc3n2-c2sc(Br)cc2C(c2ccccc2Cl)=NC3)CC1.CS(=O)(=O)O was tested. Which “hERG current change (%, negative = inhibition) at 1uM” value did it give?
**A.** Its value is -11.9%.

**Q.** Which “hERG current change (%, negative = inhibition) at 1uM” value does the source give for COC(=O)Nc1ccc(S(=O)(=O)Nc2cnc3ccccc3n2)cc1 here?
**A.** Its value is 18.1%.

**Q.** With COc1cc(OC)c2c(-c3ccccc3)cc(=O)oc2c1C(CCN1CCCCC1)c1ccc(N(C)C)cc1 (centres unmarked) as the compound, how does the “hERG current change (%, negative = inhibition) at 1uM” value read?
**A.** Its value is 2.68%.

**Q.** How did the “hERG current change (%, negative = inhibition) at 1uM” value turn out when CCCn1nc(C(=O)OCC(=O)NC(C)c2ccccc2)c2ccccc2c1=O (centres unmarked) was run?
**A.** Its value is 16.3%.

**Q.** Which “hERG current change (%, negative = inhibition) at 1uM” value does the source give for COc1ccc(O)c(C(c2c(C)[nH][nH]c2=O)c2c(C)[nH][nH]c2=O)c1 here?
**A.** The value was 4.85%.

**Q.** Which “hERG current change (%, negative = inhibition) at 1uM” value does the source give for Cc1[nH+]csc1CCOC(=O)c1cccc([N+](=O)[O-])c1.[Cl-] here?
**A.** The value was 4.22%.

**Q.** With CCN(Cc1nc2cc(Cl)ccc2c(=O)[nH]1)C(=O)c1nn(C)c(=O)c2ccccc12 as the compound, how does the “hERG current change (%, negative = inhibition) at 1uM” value read?
**A.** Its value is 3.93%.

**Q.** How did the “hERG current change (%, negative = inhibition) at 1uM” value turn out when Cc1nc(NC(=O)c2ccccc2)sc1C1(C)CC(c2ccc(OC(F)(F)F)cc2)=NO1 (centres unmarked) was run?
**A.** Its value is 13.5%.

**Q.** How did the “hERG current change (%, negative = inhibition) at 1uM” value turn out when COc1cc(N=c2ssnc2Cl)cc(OC)c1OC was run?
**A.** Its value is 7.47%.

**Q.** How did the “hERG current change (%, negative = inhibition) at 1uM” value turn out when CCOC(=O)Cn1nc(C)c(NC(=O)c2ccc(Br)o2)c1C was run?
**A.** The value was 10.2%.

**Q.** With CC(=O)Nc1cc2c(cc1NC(=O)Cn1nc(-c3ccc4c(c3)OCCO4)ccc1=O)OCCO2 as the compound, how does the “hERG current change (%, negative = inhibition) at 1uM” value read?
**A.** The value was 6.94%.

**Q.** CC1(C)O[C@@H]2C[C@H]3[C@@H]4C[C@H](F)C5=CC(=O)C=C[C@]5(C)[C@@]4(F)[C@@H](O)C[C@]3(C)[C@]2(C(=O)CO)O1 was tested. Which “hERG current change (%, negative = inhibition) at 1uM” value did it give?
**A.** Its value is 17.2%.

**Q.** O=C(NCCCn1ccnc1)/C(=C\c1ccccc1F)NC(=O)c1ccccc1 was tested. Which “hERG current change (%, negative = inhibition) at 1uM” value did it give?
**A.** The value was -42.5%.

**Q.** With Cc1ccc(NC(=O)NC(=O)CSc2nnc(-c3ccc(OC(F)F)cc3)n2N)c(C)c1 as the compound, how does the “hERG current change (%, negative = inhibition) at 1uM” value read?
**A.** Its value is 12.7%.

**Q.** With COCCN(C(=O)c1csnn1)C(C(=O)NC1CCCCC1)c1ccc(Cl)cc1 (centres unmarked) as the compound, how does the “hERG current change (%, negative = inhibition) at 1uM” value read?
**A.** Its value is 10%.

**Q.** For O=C(COC(=O)c1cc(Cl)ccc1O)NCC1CCCO1 (centres unmarked), which “hERG current change (%, negative = inhibition) at 1uM” value is on record?
**A.** The value was 13.1%.

**Q.** Which “hERG current change (%, negative = inhibition) at 1uM” value does the source give for O=C(NC1CCCCC1)c1cc(-c2ccc(Cl)cc2)on1 here?
**A.** The value was -4.47%.

**Q.** With COc1ccc(S(=O)(=O)Nc2ccccc2C(=O)NC(C)(C)C)cc1OC as the compound, how does the “hERG current change (%, negative = inhibition) at 1uM” value read?
**A.** Its value is -0.334%.

**Q.** For Cc1ccc2c(c1)/C(=C/c1ccccc1C)C(=O)N2, which “hERG current change (%, negative = inhibition) at 1uM” value is on record?
**A.** The value was 16.9%.

**Q.** How did the “hERG current change (%, negative = inhibition) at 1uM” value turn out when CCN1CCN(CC(=O)N2CCCC(C(=O)c3ccc(Oc4ccccc4)cc3)C2)CC1 (centres unmarked) was run?
**A.** Its value is -0.91%.

**Q.** Cc1nn(-c2ccccc2)c(Cl)c1/C=N/NC(=O)CNc1n[nH]c(=O)[nH]c1=O was tested. Which “hERG current change (%, negative = inhibition) at 1uM” value did it give?
**A.** Its value is 6.87%.

**Q.** For CC(C)Cn1c(N)c(C(=O)COC(=O)C2=COCCO2)c(=O)n(C)c1=O, which “hERG current change (%, negative = inhibition) at 1uM” value is on record?
**A.** Its value is 11%.

**Q.** How did the “hERG current change (%, negative = inhibition) at 1uM” value turn out when Cc1ccc(C(=O)OCC(=O)Nc2ccc(F)c(Cl)c2)o1 was run?
**A.** The value was 14.9%.

**Q.** O=C(NC(c1ccccc1)c1ccccc1)C1CCCO1 (centres unmarked) was tested. Which “hERG current change (%, negative = inhibition) at 1uM” value did it give?
**A.** Its value is 9.21%.

**Q.** Which “hERG current change (%, negative = inhibition) at 1uM” value does the source give for O=C(CCCN1C(=O)/C(=C\c2cccs2)SC1=S)Nc1ccc(O)cc1C(=O)O here?
**A.** The value was 10.9%.

**Q.** Cc1ccsc1C(=O)Nc1ccc(OCc2ccccc2)cc1 was tested. Which “hERG current change (%, negative = inhibition) at 1uM” value did it give?
**A.** Its value is 15.7%.

**Q.** With COc1cccc(C(=O)NC2CCN(CC(=O)NCc3ccccc3OC)CC2)c1 as the compound, how does the “hERG current change (%, negative = inhibition) at 1uM” value read?
**A.** Its value is 7.23%.

**Q.** COC(=O)Nc1ccc(=O)n(Cc2c(Cl)cccc2Cl)c1 was tested. Which “hERG current change (%, negative = inhibition) at 1uM” value did it give?
**A.** Its value is 12.2%.

**Q.** O=C(NNS(=O)(=O)c1ccc2ccccc2c1)c1cccs1 was tested. Which “hERG current change (%, negative = inhibition) at 1uM” value did it give?
**A.** The value was 9.55%.

**Q.** O=C(NN=C1CCCCC1)c1ccccc1OCc1ccc(F)cc1 was tested. Which “hERG current change (%, negative = inhibition) at 1uM” value did it give?
**A.** The value was 9.08%.

**Q.** For COc1ccc2cc(C#N)c(SCC(=O)N3CCCC3)nc2c1, which “hERG current change (%, negative = inhibition) at 1uM” value is on record?
**A.** Its value is 0.146%.

**Q.** CCC(C)NC(=O)c1cc(OC)c(OC)c(OC)c1 (centres unmarked) was tested. Which “hERG current change (%, negative = inhibition) at 1uM” value did it give?
**A.** Its value is 8.7%.

**Q.** How did the “hERG current change (%, negative = inhibition) at 1uM” value turn out when O=[N+]([O-])c1ccc(O)c(P(=O)(c2ccccc2)c2ccccc2)c1 was run?
**A.** Its value is 12.7%.

**Q.** How did the “hERG current change (%, negative = inhibition) at 1uM” value turn out when CCC(=O)c1ccc(OCCn2cncn2)cc1 was run?
**A.** The value was -2.25%.
